Measurements reported in PubChem BioAssay AID488969 (Vanderbilt High Throughput Screening Facility, 2010).
In all, about 110,000 compounds were measured (“z-score”: median about -0.1, highest 2% from about 2 on). The list shows a part of the results. Calls of active or inactive are those of the source.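 The calls were made as follows: active = z-score in the third read window above 3 or below -3; inactive = the rest.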

These compounds were tested against Metabotropic glutamate receptor 8 (Rattus norvegicus) (UniProt P70579) (assay: mGluR8 Gi/Go-coupled signaling modulation – cell-based, rat, thallium flux, HTS, primary screen (AID 488969)). Conditions: HEK293 rat mGluR8, GIRK (G protein-gated inwardly rectifying potassium channel) thallium flux, FluoZin2; at 10 µM; stronger effect = higher value; submaximal glutamate (EC20) added with thallium.
Chain of UniProt P70579 (P70579 whole entry, looked up): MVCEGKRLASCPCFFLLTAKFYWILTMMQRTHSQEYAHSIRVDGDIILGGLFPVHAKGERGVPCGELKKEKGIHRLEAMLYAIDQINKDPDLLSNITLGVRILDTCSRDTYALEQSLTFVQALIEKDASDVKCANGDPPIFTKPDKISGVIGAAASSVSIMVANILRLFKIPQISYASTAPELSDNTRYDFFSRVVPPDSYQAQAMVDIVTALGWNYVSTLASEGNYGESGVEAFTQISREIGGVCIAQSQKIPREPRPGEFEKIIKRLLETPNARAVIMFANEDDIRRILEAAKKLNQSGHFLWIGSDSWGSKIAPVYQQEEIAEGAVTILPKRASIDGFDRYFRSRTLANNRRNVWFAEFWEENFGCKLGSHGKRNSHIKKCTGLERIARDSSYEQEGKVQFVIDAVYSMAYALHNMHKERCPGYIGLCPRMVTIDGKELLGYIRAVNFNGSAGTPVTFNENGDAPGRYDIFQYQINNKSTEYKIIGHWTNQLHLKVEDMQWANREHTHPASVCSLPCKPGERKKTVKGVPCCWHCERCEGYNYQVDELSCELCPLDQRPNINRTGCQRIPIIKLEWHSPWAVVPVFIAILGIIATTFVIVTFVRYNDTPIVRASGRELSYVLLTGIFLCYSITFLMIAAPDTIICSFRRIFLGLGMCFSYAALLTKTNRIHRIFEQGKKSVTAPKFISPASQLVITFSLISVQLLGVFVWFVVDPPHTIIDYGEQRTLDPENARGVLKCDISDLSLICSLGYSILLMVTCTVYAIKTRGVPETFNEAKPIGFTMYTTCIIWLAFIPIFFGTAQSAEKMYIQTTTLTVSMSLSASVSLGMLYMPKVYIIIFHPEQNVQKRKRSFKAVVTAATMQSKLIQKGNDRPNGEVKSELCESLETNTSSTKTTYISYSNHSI

| Structure (SMILES) | z-score |
| --- | --- |
| Cc1ccc(CN(c2ccc(C(=O)NCc3cccnc3)cc2)S(C)(=O)=O)cc1 | 0.0278 |
| COc1ccc(C(=O)N2CCN(C(=O)c3ccco3)CC2)cc1OC | 0.587 |
| CCOC(=O)N1CCN(C(=O)CSCC(=O)Nc2nc(-c3cccs3)cs2)CC1 | -0.51 |
| O=c1nc2sc3ccccc3n2c(=O)n1-c1cccc(Cl)c1 | -0.296 |
| CC(=O)C1C(c2ccncc2)NC(=O)NC1(O)C(F)(F)F (stereo not given) | 0.609 |
| O=[N+]([O-])c1ccc(N=Cc2sc3ccccc3c2O)cc1 | -0.479 |
| Cc1ccccc1-c1nc(-c2ccc(NC(=O)c3ccc(Br)o3)cc2)no1 | 0.0114 |
| CCCC(=O)N(CCc1ccc(OC)cc1)Cc1nc2ccccc2c(=O)[nH]1 | 1.57 |
| O=C1C(c2ccncc2)N(CCC2=CCCCC2)C(=O)CN1C1CCCCC1 (stereo not given) | 0.392 |
| O=C(NCc1cccs1)c1ccc2c(c1)OCCO2 | 0.203 |
| CC(=O)N(CCN(C(C)=O)c1ccccc1)c1ccccc1 | 0.016 |
| CCOC(=O)c1ccc(S(=O)(=O)N2CCNCC2)cc1 | -0.353 |
| S=c1[nH]nc(COc2ccccc2)n1/N=C/c1ccccn1 | 0.101 |
| CC1CN(C2CC(C)(C)NC(C)(C)C2)CCC1=O (stereo not given) | active: 3.98 |
| Cn1cc(CC(=O)Nc2cccc(C#N)c2)c2ccccc21 | -0.00945 |
| FC(F)(F)c1cccc(N2CCN(Cc3ccoc3)CC2)c1 | 0.548 |
| CCS(=O)(=O)CCSc1nc2ccccc2o1 | -0.627 |
| Cc1ccc(/C=N/NC(=O)c2c[nH]c3ccccc23)s1 | -0.00778 |
| C=CCn1c(Oc2cc(C)ccc2C)nc2c1c(=O)n(C)c(=O)n2C | 0.128 |
| CC1(C)CC(=O)C2=C(C1)NC(SCC(N)=O)=C(C#N)C21CCCCC1 | -0.349 |
| O=C(COC(=O)c1ccccc1NC(=O)c1ccco1)Nc1ncc(Cl)cc1Cl | -0.0646 |
| Cc1cc(C)c2c(n1)nn1c(C3CC3)cc(C(F)(F)F)nc21 | 0.0811 |

| Structure (SMILES) | z-score |
| --- | --- |
| CN(C)C(=O)Cn1c(=O)n(C)c2ccccc21 | 0.277 |
| NC(=O)NC(=O)CSc1nc(-c2ccccc2)c(-c2ccccc2)n1CC1CCCO1 (stereo not given) | -0.61 |
| COc1ccc(/C=N/Nc2nnc(-c3ncc[nH]3)c3ccccc23)cc1 | 0.042 |
| COc1cc(NC(=O)c2ccccc2)c(OC)cc1NC(C)=O | -0.2 |
| O=[N+]([O-])c1cn(-c2nc(-c3ccco3)cc(C(F)(F)F)n2)cn1 | 0.47 |
| O=C(N/N=C\c1ccc(COc2ccc([N+](=O)[O-])cc2)o1)c1ccc(Cl)cc1 | -0.0513 |
| Cc1cc(C)nc(NC2=NCCN2C(=O)NC2CCCCC2)n1 | -1.03 |
| COc1ccc(-c2cc(C(F)(F)F)c(C#N)c(SCC(=O)Nc3ccccc3C#N)n2)cc1 | -0.293 |
| CC1CCCN(S(=O)(=O)c2ccc(C(=O)Nc3nnc(-c4ccccc4Cl)o3)cc2)C1 (stereo not given) | active: 3.98 |
| CN1C(=O)CSc2ccc(NC(=O)N3CCOCC3)cc21 | -0.0383 |
| CCCCOc1ccc(C(=O)NCc2ccccn2)cc1 | -0.356 |
| O=C(NCC1CCCC(CNC(=O)N2CCc3ccccc32)C1)N1CCc2ccccc21 (stereo not given) | -0.365 |
| Cc1cc(C(C)(C)C)ccc1OCCOCCN1CCCC1 | 0.381 |
| CCCCc1nc(N)c(C#N)c(-c2ccco2)c1CCC | -0.0773 |
| COc1cccc(NC(=O)CNC(=O)c2ccc(F)cc2)c1 | 0.944 |
| CCC(=O)/C=C1\Sc2ccc(OC)cc2N1CCO | -0.195 |
| CC(C)CNC(=O)c1ccccc1NC(=O)c1ccc(CN2CCOCC2)cc1 | 0.0794 |
| O=C(NC1CCCCC1)C(c1ccc2ncccc2c1)N(Cc1cccs1)C(=O)c1cccs1 (stereo not given) | -2.26 |
| O=C(OC1CCc2ccccc2C1=O)c1ccccc1O (stereo not given) | -0.834 |
| Cc1ccc(CNC(=O)CSCC(=O)O)cc1 | -0.261 |
| CCCC(=O)Nc1cc(=O)n(C)c(=O)n1C | -0.309 |
| CCOc1ncccc1C(=O)OCC(=O)Nc1cc(S(=O)(=O)N2CCOCC2)ccc1Cl | -0.296 |

| Structure (SMILES) | z-score |
| --- | --- |
| COC(=O)c1sccc1NS(=O)(=O)c1ccc(OC)cc1 | 0.51 |
| O=C1c2ccccc2C(Nc2ccc(S(=O)(=O)N3CCCCCC3)cc2)N1c1ccccn1 (stereo not given) | -0.262 |
| COc1ccc(CSc2nnnn2C)cc1[N+](=O)[O-] | -0.18 |
| COc1ccc(OCCOC(=O)c2cccs2)cc1 | -0.126 |
| Cc1ccc(C)c(NC(=O)CCC(=O)OC(C(=O)c2ccccc2)c2ccccc2)c1 (stereo not given) | 0.138 |
| CC(NC(N)=O)C(=O)OCc1ccc(Cl)cc1Cl (stereo not given) | -0.0911 |
| CC(C)=C1C2CCC1C1C(=O)N(c3nc(-c4ccc(F)cc4)c(C)s3)C(=O)C21 (stereo not given) | -0.264 |
| Cc1ccc(S(=O)(=O)N2CCOCC2)cc1C(=O)Nc1nc2ccccc2[nH]1 | 0.145 |
| CCOc1cc(NS(=O)(=O)c2ccc(NC(C)=O)cc2)c(OCC)cc1NC(=O)C(C)C | -0.107 |
| Cc1cc(C)n(CCc2nc(-c3ccco3)cs2)n1 | 0.234 |
| O=C(COC(=O)c1cc2ccccc2cc1O)Nc1cccnc1Cl | -0.0274 |
| NC(=O)C1(N2CCCCC2)CCN(C2CC(=O)N(Cc3cccs3)C2=O)CC1 (stereo not given) | -0.301 |
| Cc1nn(CC(=O)Nc2ccc(Cl)c(S(=O)(=O)N(C)C)c2)c(C)c1[N+](=O)[O-] | active: 4.55 |
| Cc1ccccc1-n1c(SCC(=O)Nc2ccccc2)nc2nc3c(cc2c1=O)CCCC3 | -1.08 |
| Cc1ccc(-c2noc(CCCN3C(=O)c4ccccc4C3=O)n2)cc1 | -0.123 |
| Cc1ccc(N(CC(=O)N2CC(=O)Nc3ccccc32)S(=O)(=O)c2ccc3c(c2)OCCO3)cc1 | 0.116 |
| CSc1cccc(NC(=O)COc2ccccc2)c1 | 1.69 |
| O=C(COC(=O)c1cccc(S(=O)(=O)N2CCc3ccccc32)c1)Nc1ncc(C(F)(F)F)cc1Cl | -0.756 |
| COc1ccc(NC(C)=O)cc1NC(=O)CN1CCN(C2c3ccccc3-c3ccccc32)CC1 | -1.67 |
| Cc1cc(C)nc(SCCn2c(N3CCCCC3)nc3c2c(=O)n(C)c(=O)n3C)n1 | 0.56 |
| Cc1cc(=O)[nH]c(SCC(=O)N2CCc3ccccc3C2)n1 | -0.254 |
| CC1(c2ccccc2)CC(C)(C)N(C(=O)C2CCCO2)c2ccccc21 (stereo not given) | 0.403 |

| Structure (SMILES) | z-score |
| --- | --- |
| Cc1cc(=O)oc2c(CN(CC(C)C)CC(C)C)c(O)ccc12 | -0.00464 |
| Cc1[nH]c2ccc(-c3nnc(SCC(=O)NCc4ccco4)n3Cc3ccccc3)cc2c1C | -1.63 |
| O=C(CCn1nc(-c2ccccc2)c2ccccc2c1=O)NCC1CCCO1 (stereo not given) | -0.116 |
| COc1cc(/C(C#N)=C/c2ccccc2)c([N+](=O)[O-])cc1OC | -0.517 |
| O=C(Nc1ccc(Br)c(Cl)c1)c1ccco1 | -0.583 |
| CCOC(=O)c1c(C)[nH]c(C=Nc2ccc(OC)cc2)c1O | -0.0113 |
| C/C(Cn1nnc2ccccc21)=N\NC(=O)c1cccc(Br)c1 | -0.164 |
| OCc1cn(-c2ccccc2)nc1-c1ccco1 | 0.242 |
| O=C(NC1CC1)c1ccc2c3c(cccc13)CC2 | -0.311 |
| CC(C)(C)c1ccc(-c2cc(N)n[nH]2)cc1 | 0.498 |
| COc1cc(C2C3=C(CC(C)(C)CC3=O)OC(N)=C2[N+](=O)[O-])ccc1O (stereo not given) | 0.159 |
| CCN(CC(=O)NC1CCCC1)S(=O)(=O)c1ccc(C)cc1 | -0.122 |
| COc1ccc(S(=O)(=O)N(C)CC(=O)Nc2ccc3c(c2)OCO3)cc1 | 0.0177 |
| COC(=O)c1ccc(CSc2nc3c(c(=O)n2-c2ccc(Br)cc2)SCC3)o1 | -0.947 |
| Cc1[nH]c2ccccc2c1C(=O)CSC(=S)N(C)C | 1.75 |
| CCOc1ccc(CCNC(=O)CCc2c(C)nc3ncnn3c2C)cc1OCC | -0.26 |
| Brc1ccc(-c2nnc3sc(CN4CCC5(CC4)OCCO5)cn23)cc1 | -0.287 |
| Cc1cc(N2CCN(C(=O)OC(C)(C)C)CC2)n2ncnc2n1 | -0.75 |
| COc1cccc(-c2nc(CS(=O)CC(=O)NC3CC3)c(C)o2)c1 (stereo not given) | -0.0157 |
| COC(=O)c1ccc(COC(=O)CNC(=O)c2ccco2)cc1 | 0.327 |
| COC(=O)c1cc2ccc(OC)c(OC)c2c(=O)s1 | 0.0942 |
| O=C(NCCO)c1cccc(Nc2nc(-c3ccccc3)c3cc(Cl)ccc3n2)c1 | -0.336 |

| Structure (SMILES) | z-score |
| --- | --- |
| O=C(O)c1cc2n(n1)C(C(F)(F)F)CC(c1ccco1)N2 (stereo not given) | 0.315 |
| C=CCn1c(SCC(=O)NCc2ccco2)nnc1-c1ccc2ccccc2n1 | -0.786 |
| COc1ccc(C(c2nnnn2Cc2ccccc2)N2CCN(C(=O)c3ccco3)CC2)cc1 (stereo not given) | -1.98 |
| COc1ccc2[nH]c(=O)c(CN(C(=O)NC3CCCCC3)C3CCCC3)cc2c1 | -0.443 |
| CCCCC(=O)NC(c1ccc([N+](=O)[O-])cc1)c1c(O)ccc2ccccc12 (stereo not given) | -0.000474 |
| Cc1cc[n+](-c2nc([O-])sc2/C=N/Nc2ccc([N+](=O)[O-])cc2)cc1 | 0.255 |
| CCOc1cc(CNCc2ccccn2)ccc1OCC(=O)NC1CCCCC1 | -0.535 |
| O=C(Nc1ccc(CN2CCOCC2)cc1)c1ccccc1F | -0.0109 |
| COc1ccc(Cl)cc1CN1CCN(c2nc(C)cc(C)c2C#N)CC1 | -0.333 |
| COc1cc(N/C=C(\C(C)=O)c2ccccc2)cc(OC)c1 | -0.663 |
| COc1ccc(C(=O)Nc2cccnc2)cc1OC | -0.0486 |
| Cc1ccc(NC(=O)c2ccc(-c3nn(C)c(=O)c4ccccc34)cc2)c(C)c1 | -0.362 |
| CCC(=O)Nc1ccccc1Sc1ncnc2scc(-c3ccccc3)c12 | -0.77 |
| Cc1nn(-c2ccccc2)c(C)c1C(=O)OC/C(O)=C(\C#N)c1nc2ccccc2[nH]1 | -0.394 |
| Cc1ccccc1NC(=O)c1c(F)c(F)c(F)c(F)c1F | 0.404 |
| O=C(Nc1ccccn1)C1(c2ccccc2)CCCC1 | -0.498 |
| Nc1cc2nsnc2cc1Br | -0.0144 |
| COc1ccccc1NC(=O)CNC(=O)c1ccc(F)cc1 | 0.0471 |
| CCCOc1ccc(/C(O)=C2/C(=O)C(=O)N(CCOC)C2c2cccnc2)cc1 (stereo not given) | -1.65 |
| CCN1C(=O)N(CC)C2NC(=S)NC21 (stereo not given) | 0.386 |
| CN1CCN(C(c2cccc(C(F)(F)F)c2)c2nnnn2C(C)(C)C)CC1 (stereo not given) | 0.181 |
| O=C(NCC(=O)N(Cc1ccccc1)C(C(=O)NC1CCCC1)c1cccnc1)c1ccco1 (stereo not given) | -0.0981 |
